Laboratory results from PubChem BioAssay AID488969 (Vanderbilt High Throughput Screening Facility, 2010).
In all, about 110,000 compounds were measured (“z-score”: median about -0.1, highest 2% from about 2 on). Some of the results follow. The source made the active and inactive calls.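 The calls were made as follows: active = z-score in the third read window above 3 or below -3; inactive = the rest.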

target: Metabotropic glutamate receptor 8 (Rattus norvegicus) (UniProt P70579); assay: rat mGluR8 modulators via GIRK flux, primary screen, cell-based, thallium flux, HTS (AID 488969); conditions: HEK293 rat mGluR8, GIRK (G protein-gated inwardly rectifying potassium channel) thallium flux, FluoZin2; at 10 µM; stronger effect = higher value; submaximal glutamate (EC20) added with thallium
UniProt P70579, sequence (P70579 whole entry, looked up): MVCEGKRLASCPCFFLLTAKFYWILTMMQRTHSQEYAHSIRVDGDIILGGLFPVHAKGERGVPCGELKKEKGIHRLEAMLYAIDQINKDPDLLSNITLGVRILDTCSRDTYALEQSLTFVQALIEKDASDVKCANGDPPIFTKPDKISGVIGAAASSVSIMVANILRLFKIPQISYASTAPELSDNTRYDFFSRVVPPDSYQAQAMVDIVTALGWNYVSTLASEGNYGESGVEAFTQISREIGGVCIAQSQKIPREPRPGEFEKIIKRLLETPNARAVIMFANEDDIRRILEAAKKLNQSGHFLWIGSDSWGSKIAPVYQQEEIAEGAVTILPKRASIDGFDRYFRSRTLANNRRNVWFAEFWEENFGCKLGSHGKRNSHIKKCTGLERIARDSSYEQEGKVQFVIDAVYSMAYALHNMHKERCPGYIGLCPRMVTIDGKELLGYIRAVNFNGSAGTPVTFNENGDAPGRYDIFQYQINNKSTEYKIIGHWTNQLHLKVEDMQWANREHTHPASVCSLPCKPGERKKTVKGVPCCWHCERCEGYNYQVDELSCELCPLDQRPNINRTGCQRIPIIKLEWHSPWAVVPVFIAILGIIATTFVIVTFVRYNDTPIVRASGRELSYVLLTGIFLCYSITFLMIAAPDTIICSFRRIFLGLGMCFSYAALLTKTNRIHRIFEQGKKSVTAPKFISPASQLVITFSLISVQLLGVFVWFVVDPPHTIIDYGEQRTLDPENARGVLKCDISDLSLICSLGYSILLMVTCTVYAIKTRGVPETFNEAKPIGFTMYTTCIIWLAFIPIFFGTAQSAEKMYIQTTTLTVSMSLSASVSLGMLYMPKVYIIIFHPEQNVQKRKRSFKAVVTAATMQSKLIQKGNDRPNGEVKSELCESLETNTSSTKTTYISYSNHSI

Structure (SMILES) | z-score
O=[N+]([O-])c1ccc(N2N=C(c3ccco3)CC2c2ccccc2)cc1 (centres undefined) | -0.317
Cc1ccc(S(=O)(=O)c2cc(OC(=O)c3ccco3)ccc2OC(=O)c2ccco2)cc1 | 0.228
CCCCC1OC2(C)OC(=N)C1(C#N)C(C#N)(C#N)C2c1ccccc1 (centres undefined) | -0.655
S=c1[nH]ncn1/N=C/c1ccc(N2CCOCC2)cc1 | 0.0792
Cc1cc(C(F)(F)F)nn1CC(=O)NNC(=S)Nc1ccc(F)cc1 | 0.281
COc1ccc(S(=O)(=O)N2CCCCC2)cc1C(C)C | 0.47
Cc1cc(OCCCC(=O)NCCN2C(=O)S/C(=C\c3cccnc3)C2=O)ccc1Cl | 1.18
CCOc1ccc(C(=O)NC(=S)N(Cc2ccccc2)Cc2ccccc2)cc1 | active: 11.7
Cc1ncc(S(=O)(=O)c2ccccc2)c(-c2ccccc2Cl)n1 | -0.138
C/C(=N\NC(=O)C1(C)CC1(Br)Br)c1cccc(NC(=O)C2CCC2)c1 (centres undefined) | -0.455
CC1CCCCC1NC(=O)CSc1nnc(CN2CCOCC2)n1C (centres undefined) | 0.12
Cc1ccc(-n2c(C)cc(/C=N/NC(=O)CC3(C)OCCO3)c2C)c(C)c1 | -0.381
COc1ccc(COc2ccsc2C(=O)Nc2ccc(Cl)cc2)cc1 | -0.0169
O=C(CSc1nnc(CCCN2C(=O)c3cccc4cccc(c34)C2=O)n1-c1ccccc1)N1CCCCC1 | -1.09
CCC(C)C(NC(=O)C1CCC(C)CC1)C(=O)NCc1ccccn1 (centres undefined) | 0.219
CCOC(=O)c1sc(NC(=O)CSc2nc(-c3ccco3)cc(C(F)(F)F)n2)c(C#N)c1C | -1.04
COc1ccc(C2C=C(c3ccccc3)Nc3nc(CCCO)nn32)cc1 (centres undefined) | -0.168
CCOc1ccc(C(=O)N/N=C/c2ccc(-c3ccc(S(=O)(=O)Nc4ncccn4)cc3)o2)cc1 | -0.00828
O=C(CN(Cc1ccccc1)S(=O)(=O)c1ccccc1)N/N=C/c1ccc2c(c1)OCO2 | -0.185
COc1ccc(CCN2CC(C(=O)NCc3ccco3)CC2=O)cc1OC (centres undefined) | 0.142
COc1ccc(OCCOCCN2CCc3ccccc3C2)cc1 | 0.489
CCOC(=O)c1c(NC(=S)NC(=O)c2ccc(Cn3cc(Cl)cn3)o2)sc2c1CCC(C)C2 (centres undefined) | -0.144

Structure (SMILES) | z-score
Cc1ccc(-c2ccc(C(=O)O)[nH]2)cc1 | 2.4
O=C(NN1C(=O)C2C3CCC(O3)C2C1=O)c1ccc(Cl)cc1 (centres undefined) | -0.19
COc1ccccc1-n1c(SCC(=O)NC(C)(C)C)nc(O)cc1=O | 1.96
COc1cc(/C=C2\C(=O)N(CCC#N)N=C2C)c(Br)cc1OC(C)C | -0.384
CC(CCc1ccccc1)NC(=O)c1ccc(Cl)nc1 (centres undefined) | -0.894
Cc1cc(C)cc(-n2cc[nH]c2=S)c1 | 0.141
CC(C)[C@H](NC(=O)OCc1ccccc1)C(=O)NCc1ccccc1 | 0.156
C=COCCNC(=O)Nc1ccc(Cl)cc1Cl | 0.104
CCOc1ccc(C(C)NC(=O)C2CCC2)cc1 (centres undefined) | -0.117
COc1ccc2c(c1)O/C(=C\c1sccc1C)C2=O | -0.62
CCN(C(=O)c1coc(=O)c(Br)c1)c1ccc2c(c1)OCO2 | 1.14
Cc1ccccc1CSc1nc2n(n1)C(c1cccs1)C1=C(CCCC1=O)N2 (centres undefined) | -1.16
O=C(NCCC1=CCCCC1)c1ccc(Br)o1 | -0.563
Cc1cc(-c2ccccc2C(=O)O)on1 | 0.117
CCCN1C(=O)/C(=N\OCC(=O)NC23CC4CC(CC(C4)C2)C3)c2ccccc21 | -0.337
CCOC(=O)c1cc(CC)sc1NC(=O)COc1ccc2c(C)cc(=O)oc2c1 | -0.465
O=[N+]([O-])c1c(NCCO)cc(Sc2nc3ccccc3s2)c2nonc12 | 1.68
Cc1cccc(C(C)C)c1NC(=O)c1cccnc1 | 0.119
Cc1cc(C)cc(N(C(=O)c2cc3ccccc3oc2=O)C2C=CS(=O)(=O)C2)c1 (centres undefined) | -0.11
CN(Cc1ccccc1)Cc1nc2c(c(=O)n(C)c(=O)n2C)n1CCc1ccccc1 | -0.154
Cc1cc(C)nc(NS(=O)(=O)c2ccc(NC(=O)C3(c4ccccc4)CCCC3)cc2)n1 | -0.192
O=c1[nH]cnc2cc(-c3ccccc3)sc12 | -0.416

Structure (SMILES) | z-score
Cc1c(Cl)cccc1NC(=S)NCCCN(C)C | -0.139
O=[N+]([O-])c1ccc(N2CCCC2)cc1N1CCCC1 | -0.564
O=C(Cn1c(=O)n(-c2ccc(F)cc2)c(=O)c2sccc21)c1ccccc1 | -0.796
Cc1cc(C2=NNC(=NC3CC3)SC2)c(C)n1-c1ccccc1 | -1.27
N#Cc1ccc(/C=N/NC(=O)c2cc(-c3cccs3)nc3ccccc23)cc1 | -0.302
Cc1nn(-c2ccccc2)c(OC(=O)c2cccs2)c1S(=O)(=O)c1ccccc1 | -1.11
O=C(O)CSc1cnc2ccccc2n1 | -0.0271
C=CCn1c(N)c(C(=O)NC2CCCCC2)sc1=S | -0.117
O=C1c2cccc3cccc(c23)C(=O)N1CC1CCN(S(=O)(=O)c2ccc(F)cc2)CC1 | -0.403
Cc1cccc(CCNS(=O)(=O)c2ccc(S(=O)(=O)NC3CCCC3)cc2)c1 | -0.217
O=S(=O)(c1cc(F)cc(F)c1)N1CCN(c2ncccn2)CC1 | -1.38
O=C(c1ccco1)N1CCN(C(=O)c2cnn3c2NC(c2cccs2)CC3C(F)(F)F)CC1 (centres undefined) | active: -7.82
Cc1nn(C)c(C(=O)N/N=C/c2ccc(Br)cc2)c1Cl | -0.485
Cc1ccccc1S(=O)(=O)Cc1ccc(C(=O)NC(C)c2ccc3c(c2)OCCO3)o1 (centres undefined) | -0.387
Cn1c(=O)n(C)c2cc(C(=O)O)ccc21 | -0.421
Cc1cccc2cc(C#N)c(NCCNS(=O)(=O)c3ccc4c(c3)OCCO4)nc12 | 0.418
O=C(Nc1cc(Cl)ccc1Oc1ccccc1)c1ccccc1F | active: 3.37
Cc1cc(C)n(-c2nc3c(c(=O)n(Cc4ccc(Cl)c(Cl)c4)c(=O)n3C)n2C)n1 | -0.0996
O=C(CCn1cccc1)NCc1ccc2c(c1)OCO2 | -0.423
N#Cc1nc(COc2ccccc2Cl)oc1NCc1ccco1 | -0.293
COC(=O)c1ccc(C(=O)OC)c(NC(=O)CN(C)Cc2ccc(Cl)c(Cl)c2)c1 | -0.0899
COc1ccc(N2C(=O)c3ccccc3NC23C(=O)N(C)c2ccccc23)cc1 (centres undefined) | -0.201

Structure (SMILES) | z-score
Cc1ccc(-c2nn3nnnc3c3ccccc23)cc1 | -0.97
CCCCNC(=O)CN1C(=O)C(CC)Oc2ccc(Cl)cc21 (centres undefined) | -0.426
COc1cc(S(=O)(=O)NCc2ccccn2)c(OC)cc1Cl | -0.212
COC(=O)n1c(=O)oc2cc(S(=O)(=O)N3CCCCC3)ccc21 | 0.0194
Cc1ccc(CNc2ccc3c(c2)OCO3)cc1 | -0.24
C1=C(CCNCC2CC2)CCCC1 | 0.204
O=C(Nc1ccc2c(c1)nc1n2CCOC1)c1ccco1 | 0.21
CC1CCCC(C)N1C(=O)CSc1nnc(-c2c[nH]c3ccccc23)o1 (centres undefined) | -0.517
CCOC(=O)c1c(C)n(C)c2ccc(O)c(CN3CCC(C)CC3)c12 | active: 3.63
Cc1c(C(C)O)nnn1-c1nonc1N (centres undefined) | 0.215
CC12CCC(C(N)=O)(c3nc4ccccc4nc31)C2(C)C (centres undefined) | -0.00707
CCN(CC)S(=O)(=O)c1ccc(C(=O)OC2CCCCC2CN(C)C)cc1 (centres undefined) | -0.992
Cc1ccc(-c2csc3ncnc(-n4cnc5ccccc54)c23)cc1 | -0.525
c1ccc(CC2CCN(c3nc4ccccc4n4cnnc34)CC2)cc1 | -0.185
COc1ccc(NS(=O)(=O)c2ccc(NS(C)(=O)=O)cc2)cc1 | -0.688
COc1ccc(CN(CC2CCCO2)C(=O)CN2C(=O)C(C)Oc3ccc(C)cc32)cc1OC (centres undefined) | -0.371
O=C(O)CC1S/C(=N/N=C/c2ccc(-c3ccccc3[N+](=O)[O-])o2)NC1=O (centres undefined) | -0.268
CCN(CC)CCCNC(=O)Cc1c(C(=O)O)n(C)c2ccccc12 | 0.239
CC1(C)CC(=O)C/C(=N\NC(=O)c2cccs2)C1 | 0.00718
Cc1cc(C(=O)CN2C(=O)NC3(CCCc4ccccc43)C2=O)c(C)n1Cc1ccco1 (centres undefined) | 0.0556
CCOc1ccc(/C(O)=C2/C(=O)C(=O)N(CCOCCO)C2c2cccnc2)cc1 (centres undefined) | 0.108
COc1ccc(OC)c(Nc2nc(-c3cccs3)cs2)c1 | 0.0362

Structure (SMILES) | z-score
CC(C)N(Cc1cc2ccccc2[nH]c1=O)C(=O)c1cccnc1 | 0.484
CCN(CC)S(=O)(=O)c1ccc(C)c(NC(=O)COc2ccc(Cl)cc2Br)c1 | -0.162
CCOc1nc(NC2CCCCC2)nc(NC(C)(C)C)n1 | -0.931
Cc1nnc(NC(=O)c2ccco2)s1 | active: 3.93
CCc1c(C)c(C#N)c2nc3ccccc3n2c1N1CCN(c2cc(C)ccn2)CC1 | -0.193
COc1ccc(C(=O)CSc2ccc(-c3ccc(C)cc3)nn2)cc1 | 0.0135
O=c1[nH]c(=O)n(-c2ccc(F)cc2)c2c1C(C(F)(F)F)(C(F)(F)F)N=C(c1ccc(F)cc1)N2 | -0.611
CCCOc1ccc(CNC(=S)NCc2ccc(OC(C)C)cc2)cc1 | -0.0698
O=C(NC(=S)Nc1ccccc1N1CCOCC1)c1sc2ccccc2c1Cl | 1.18
Cn1nc(C(F)(F)F)c(/C=N/OC(=O)c2ccccc2)c1Cl | 0.158
c1ccc2sc(C3CCN(Cc4nnnn4Cc4ccc5c(c4)OCO5)CC3)nc2c1 | 0.227
O=c1[nH]nnc2sc3c(c12)CCCC3 | 0.0199
O=S(=O)(c1ccccc1)c1nc(-c2ccco2)oc1NCc1ccccc1 | -0.301
COc1ccc(NC(=O)Nc2ccc(C(=O)N3CCOCC3)cc2)cc1 | 0.271
CSc1nnc(-c2ccc(S(=O)(=O)N3CCOCC3)cc2)n1CC1CCCO1 (centres undefined) | -1.21
CCOc1ccc(NC(=O)CSc2nc3ccccc3c(=O)n2CCCC(=O)N2CCCC2)cc1 | -0.154
Cc1ccc(C)c(N2CCN(c3ncnc4c3cnn4-c3ccccc3)CC2)c1 | -0.0672
c1ccc(CCn2nnnc2CN2CCN(C3CCCC3)CC2)cc1 | -0.263
COc1ccc(NC(=O)CCCSc2nc(-c3ccco3)cc(C(F)(F)F)n2)cc1OC | 1.53
CC1CCN(C(=O)CN(c2ccc(Oc3ccccc3)cc2)S(C)(=O)=O)CC1 | -0.522
Cc1ccc(S(=O)(=O)N2CC(=O)Nc3ccccc32)cc1 | -0.191
